{"source": "PubChem BioAssay AID686979", "about": "(National Center for Advancing Translational Sciences (NCATS), 2013)", "note": "About 50,000 (12%) of roughly 420,000 compounds were called active. Inconclusive means that the source gave no clear call. Such entries were picked first, then a sample of the others. Calls follow the shape of the dose curve; as a rule, active = well fitted inhibition curve with a large enough effect; inconclusive = small, poorly fitted or top-dose-only effect; inactive = flat fitted curve, though single readings scatter. No potency is given beside an inconclusive call; the fits are too rough. % is scaled to controls: 0 for no effect and ±100 for the full control effect; potency is read from the fitted curve at half-maximal effect; tags tell the direction and shape of the fitted curve.", "data": [{"test": "qHTS for Inhibitors of human tyrosyl-DNA phosphodiesterase 1 (TDP1): qHTS in cells in presence of CPT; also: nearly all actives have a fitted effect of over 55% in size", "settings": "chicken DT40 Tdp1-/-;hTDP1 cells + 20 nM CPT, ATP luminescence, 48 h; activity change, negative = growth inhibition: at 46.2 µM (top of the series) unless noted", "in_short": "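Chicken DT40 Tdp1-/- cells complemented with human TDP1, 400 cells/well, exposed to compounds plus 20 nM camptothecin for at least 48 h at 37 C; viability read as ATP content by CellTiter-Glo luminescence.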", "values": [{"molecule": "CC(=O)N1CCN(C(=S)c2ccc(-c3ccc(Cl)cc3)o2)CC1", "Potency": "inconclusive [inhibitor, single point]"}, {"molecule": "Cc1ccc(S(=O)(=O)N2CCC(N3CCN(C)CC3)CC2)cc1Cl", "activity change, negative = growth inhibition": "inactive: -20.7%"}, {"molecule": "Cc1occc1-c1nnc(SCC(=O)NCc2ccco2)n1CC(C)C", "activity change, negative = growth inhibition": "inconclusive: -31.4% [inhibitor]"}, {"molecule": "CC1(C)Cc2c(c(N3CCOCC3)nc3sc4c(=O)[nH]cnc4c23)CS1", "Potency": "inconclusive [inhibitor, single point]"}, {"molecule": "O=C(Nc1cn(-c2ccccc2)nc1-c1cccs1)c1ccco1", "Potency": "inconclusive [inhibitor, single point]"}, {"molecule": "COc1cc(NC(=O)c2ccccc2F)c(OC)cc1NC(=O)CN1CCOCC1", "activity change, negative = growth inhibition": "inactive: -18.6%"}, {"molecule": "O=C(Nc1ccc(F)cc1)c1ccc(Br)c(S(=O)(=O)N2CCOCC2)c1", "Potency": "inconclusive [inhibitor, partial curve]"}, {"molecule": "COCCNS(=O)(=O)c1cc(OC)ccc1OC", "activity change, negative = growth inhibition": "inactive: 4.69%"}, {"molecule": "Cc1ccccc1-n1nc2c(c1NC(=O)c1ccc(S(=O)(=O)N(C)C)cc1)CSC2", "Potency": "inconclusive [inhibitor, single point]"}, {"molecule": "CCc1ccc(CN(C)C(=O)c2cc(COc3cncc(Cl)c3)on2)cc1", "Potency": "inconclusive [inhibitor, single point]"}, {"molecule": "CN1/C(=C\\C(=O)CSc2nnc(N)s2)C(C)(C)c2ccccc21", "Potency": "inconclusive [inhibitor, single point]"}, {"molecule": "CCN(CC)CC(O)Cn1c(C)c(-c2ccccc2)c2cc([N+](=O)[O-])ccc21", "note": "(stereo not given)", "Potency": "active: 20.6 µM"}, {"molecule": "CC[C@]1(c2ncc[nH]2)Cc2ccccc2O1", "Potency": "inconclusive [inhibitor, partial curve, poor fit]"}, {"molecule": "COC(=O)c1ccc2nc(-c3ccc(F)cc3)c(Cc3ccc(OC)cc3C)n2c1", "Potency": "inconclusive [inhibitor, single point]"}, {"molecule": "c1cc(SC2CCCCC2)cc(-c2nc3cnccn3c2NC2CCCCC2)c1", "Potency": "inconclusive [inhibitor, single point]"}, {"molecule": "COc1ccccc1C(=O)COC(=O)C(NC(=O)Cc1ccccc1)C(C)C", "note": "(stereo not given)", "Potency": "inconclusive [inhibitor, partial curve]"}, {"molecule": "COC(=O)c1c(C)[nH]c(C(=O)CN2C(=O)C3CC=CCC3C2=O)c1C", "note": "(stereo not given)", "Potency": "inconclusive [inhibitor, single point]"}, {"molecule": "O=C(Nc1ccccc1)N1CCN(C(=O)c2nsc3ccccc23)CC1", "activity change, negative = growth inhibition": "inactive: -7.1%"}, {"molecule": "COc1ccccc1CC(=O)NO", "activity change, negative = growth inhibition": "inactive: 2.65%"}, {"molecule": "COc1ccc(-n2nc3c(N4CCC(C(=O)NCCc5ccco5)CC4)nnc(C)c3c2C)cc1", "Potency": "inconclusive [inhibitor, single point]"}]}]}
